The source of these data is patent US5659055A, “Cytoprotective fatty moiety compounds” (Virginia Commonwealth University, priority 1995, dated 1997).

Like-named read-outs stand apart in the source and are kept apart here.

One experiment relates to Ca++-dependent PLA2s. The note with it: 10 μM.
Experiment [1] concerns PLA2 activities derived from human platelets and human polymorphonuclear leucocytes (PMNs).
Experiment [2] has the same test system. As to conditions: to approximately the same extent; cited from earlier work.

Turning to `CCCCC[C@H](O)/C=C/C1=C(CCCCCCC(=O)O)C(=O)CC1` [PGB1, prostaglandin B1], the PLA2 inhibitory activity result in the experiment on Ca++-dependent PLA2s is “not inhibitory”. In experiment [1], the “less inhibitory than the precursor arachidonic acid” value is on record as “at least 2 orders of magnitude”.

As to `CCCCC/C=C\C/C=C\C/C=C\C/C=C\CCCC(=O)O` [arachidonic acid], the “inhibition of in vitro PLA2 activity” value in experiment [2] is listed as “inhibited”. `CCCCC/C=C\C/C=C\CCCCCCCC(=O)O` [linoleic acid]: the “inhibition of in vitro PLA2 activity” value in experiment [2] is on record as “inhibited”. `CCCCCCCC/C=C\CCCCCCCC(=O)O` [oleic acid]: the “inhibition of in vitro PLA2 activity” value in experiment [2] was “inhibited”. As for `CCCCCC[C@@H](O)C/C=C\CCCCCCCC(=O)O` [ricinoleic acid], the “inhibition of in vitro PLA2 activity” value in experiment [1] (12-hydroxylation of oleic acid) is “eliminates the inhibitory activity”.
